Results taken from the RNAGym collection of RNA variant scans (doi:10.7554/elife.90254).
The source gives no read counts; variants with many changes may rest on few reads.

B1: LINE1-mini (parent)
chain: GGCAGAGCUCAACACAGCGUGGCAAAGUGGCUGUGGCUAGACUGCC

Variants of: B1
Assay: self-cleavage, relative activity (ratio to wild type); higher = more cleavage; in vitro, sequencing; the parent is a self-cleaving ribozyme

Variant | self-cleavage
A6U G17A C37U | 0.12
U9C A26U C31G | 0
C18G A26G A41G | 0.02
U9C C23U G27A U28G C45G C46U | 0.01
G35A G36A C42U | 0.17
G5C C8G U20A C46A | 0.01
C8A A26C U28A U38G | 0
G5U A14C C37U | 0.03
C10G U20A C37U | 0.02
C10A A14C A25C | 0.01
A16C A25C U28A G30U U43C C45U | 0.04
A14G G29C U32A G33U | 0.01
G1U A6C A16C G22U | 0.05
G5C C10U A26C | 0.01
C3G C18U C23G | 0.54
A14U G21A U43A | 0.03
G5U G7C C13G | 0.07
A12G C18U C37U C42A G44U | 0.05
G21U A39C C46G | 0.06
G17U A26U G30C C31U C37A | 0.03
C8U C15U G40U | 0.29
C3A G33A C37A | 0.41
A4G C10A G27C U38G | 0.01
C8G U32G C42A | 0.02

Variant | self-cleavage
G5C G33A G35A | 0.04
C3U U9A A14U G30U C31A G40U G44U | 0.05
C10A G33C C45A | 0.02
G17A A26C G27U G44A | 0.18
A12C C13U C18A U20C | 0
C18A A25G U28G U38A | 0.06
G5U G35C A39G | 0.05
G22C C31U A39C C45U | 0.02
C10A C37U A41G | 0.01
G5A A6U A11C C31G U38G | 0.01
C3G A4G C8U U32G | 0.08
A12G G30C G33U C42A G44C | 0.05
C15A G29A A39U G44U | 0.05
A16C G19A G40C | 0.22
G21A U28C G35U G40C | 0.02
G1A A26G G33A | 0.06
C8A A14G G21U C45A | 0.2
C3A C10U C13U U20A U34A C37A | 0.12
A26C G44U C45U | 0
G1C C10A A12C | 0.01
U9C C10A A14G G27U U32A | 0.04
G1U A6C A39U A41U | 0.02
A11C U32A U38C A41G | 0.01
C10U A14G C31G | 0.02

Variant | self-cleavage
G21A G27U U34G C37G | 0.02
G2U G5U C18A | 0.03
G21C A24C U43C G44U | 0.06
C3A G5A C10U G36U C46A | 0.14
C3A A25G U34C | 0.16
G5A U9C A39U | 0.04
C10U G21U C45U | 0.13
A11G G22U C31G U43A | 0.01
C18A A24C G33A | 0.04
G21A A24U U38G | 0.03
A4G G5U A6U C46U | 0.05
C8U G22U A24U C46A | 0.09
G22A C23U A25C C31U | 0.08
U9C G29A G35C G36A G40U A41U C42G | 0.02
C3G A6G G7U G35U | 0.15
G2C U9G U20C C37A | 0.19
C10U G17C A25C U34C | 0.03
G1A A4G U34G G36C | 0.01
A4G C8G G22A C42U | 0.01
G21U G30C C46U | 2.16
U9G G35A A39U | 0.06
G7C C42A G44A | 0.06
G2A C42A C46U | 0.14
G22C G29A U43C | 0.08

Variant | self-cleavage
C10A U28G C31A G35A C37U U43C | 0
G7U C10G U20C G33C | 0.04
C8U C18G G21C G35U C46U | 0.03
A6U C15A G19C U28G G36A | 0.13
U9A U32G G33A | 0.23
G2C C10G A14U G33A | 0.01
U9A A11U A16G C31G G35U A39U | 0.01
G1U A24C U32C C37A | 0.07
A4G A11G C37G | 0
A4C C8G G36A | 0.29
G29U G36A C46U | 0.04
G5C G27A U38A | 0.13
G2C U9A U38G | 0.06
U34G G40U G44A | 0.13
C3U G7C C23A G27U G35C G44A | 0.02
A24C G30U U32C A41G | 0.08
G2A C3U C8G U28A | 0.07
A4U G7U G22U C23G G40U | 0.37
C23A G27U C45A | 0.24
A16U G30A U38C | 0.13
C3A A39C U43C | 0.07
G5U G29A C31U U34G | 0.02
G7U G21U G22C U32G G44C | 0.09
A4C C8G C15A C23A G27C C45A | 0.01

Variant | self-cleavage
C13U G30C C42A | 0.07
G5U G30U C31A | 0.03
G5C U9A A14C G36C C42U | 0.03
A6C A16U C18A G22A C37A U38A G40A | 0.16
G22A A26U G27A C31G U34A | 0.04
A12C A14G A39G | 0.01
C13A A14U G17A C18A G30U | 0
G1A G5C C18G G19A A24U A39G | 0.03
G7A U9G A41U U43A | 0.08
G5U G21A G27U U34A | 0.2
A4C C18U G29C G33U | 0.09
C13A G22A G30U C31A U34C A41C | 0.2
C10G A14C G22C G40A | 0.01
A12C A14C G19U | 0.05
C8U G17U G33A G40U C46G | 0.06
G7C G29A G30C | 0.2
G2C G7C C8A C13A A24U G27U G30A | 0.08
G7U C31U A39G | 0.02
G1C G33A G44C | 0.03
G1U U9G C18U G35A G44U C46A | 0
A24G C31A G35U | 0
A6G C10U G21C G40C A41C C42A C46U | 0
C3G A6G A11U U38C | 0.01
G1A C8A C13A G22A U43C | 0.22

Variant | self-cleavage
A16U G21U G36A C46G | 0.08
C31U C37A A39C | 0.06
G5U G7A C23G G33C C37G | 0.05
A4G C18A G36C | 0.02
G19U G44C C45A | 0.1
U9C C42G C46G | 0.01
A14G A16C A26C | 0.03
G2U G22A A25C | 0.04
G1C A12C C18G G21U G40A | 0.01
G1C C8G G35C C45U | 0.01
G5A G19U C46U | 0.02
G7A A11G G17C G21A A39U | 0.01
G1A A14U G30C G35U G44A | 0.14
G1C C15U U34A G35U | 0.02
G17A G30A U38G | 0.02
A11C U28A G36U A41C | 0
U28C C31G G36A A39C G40C | 0.02
G2A G17C C46A | 0.35
G2C A6G A11G C13G G27C G29C G44C | 0.01
U32G C37A G40C | 0.03
G7U C31U G40U A41G | 0.04
U9C G27A U34C | 0.02
C15U G27U C45A | 0.24
G7A A25C G33U A41U | 0.11

Variant | self-cleavage
A11G G21U G27U C46A | 0.02
A4G G5U C37U | 0.19
A11G A14C U28A | 0.01
C15G U43C C45G | 0.01
G2C G5A G30A | 0.05
A24C G29U G30U G36U C42A C45A | 0.03
C10U U43A C45U | 0.18
G22A A25G U43A | 0.1
C8A G21C C46U | 0.73
A4G C8G A16C U20A U34C | 0.02
C13U G35A C45U C46U | 1.24
C13A A14C C18U G21U A26U G29C | 0.05
C8U G17A C18A C23U U34A | 0.18
U20A A26C G33U C37U | 0.05
A4G U9C A25C G30U U34G C42U | 0
A4G U9G A24G | 0.03
U9A G17A G22U G29U | 0.01
A6G G36C C37G G40U | 0.21
G7A U20C G27C | 0.09
C3A G33A U38A | 0.14
U9A U20C G21A C23U | 0.06
G7C C10A A16G U32A G44C | 0.02
G17U C18A C23U C31U C46G | 0.03
